Results from article PMC12136788.
This is one part of the list.

B1: chr5:37680062:37680063:+_ENSMUSG00000029121_ENSMUST00000031004|mus_hu|mus_mus_mus_hu_False|38_88 (ssRNA)
RNA: GGGAGUUCUACAGUCCGACGAUCUUUGGGUGUAGCUGGUACCUCGUACACAGGCCCGUCAUACAUGCCCCUGGAAACCCCUUGCAAUCCAAAAACCUUGCUUCUGAUUUUGACGCGCUGGUACAGGUGCUCCGGGAACGCCUUCAACAGAGGAUUGAGCAUCA
B2: chr5:132424114:132424115:+_ENSG00000170606_ENST00000304858|hu_mus|FALSE|FALSE (ssRNA)
RNA: GGGAGUUCUACAGUCCGACGAUCACCAAAAAACUUGCUGAUCUUCUCUUUCACUGCAGGGAUUCGUGUGGCACCACCAACUAUCUCCACUGCAUAAAUAUCUUCUUUCUUUAACUUGGAUUGCUCCAAGACGCUUCGAAGUGGCAACAGAGGAUUGAGCAUCA
B3: chr11:97543600:97543601:+_ENSMUSG00000038437_ENSMUST00000044730|mus_hu|FALSE|FALSE (ssRNA)
RNA: GGGAGUUCUACAGUCCGACGAUCCUGCCCUUGGCUGCCCUGGGUCCAGGAGGAGAGAGACAGGCAGACAGACACACACACACACACACACACACACACACAUGCACGCACACACACACUCACACACUGAGACGGGCAGCUCCACAACAGAGGAUUGAGCAUCA
B4: chr12:4461469:4461470:+_ENSG00000078237_ENST00000179259|hu_hu|motif|central (ssRNA)
RNA: GGGAGUUCUACAGUCCGACGAUCCUGUUCUUUUUGAUCCGCUUCUUUCAGGAUUAGUUGACAAAGAAAUUCAAAAAAGUCGGUUCCACGCAUUUUCACCUGGUCCAGCGUCUCUCCUCCGGGCGGUGUAAACACAGGGCACUCCAACAGAGGAUUGAGCAUCA
B5: chr16:78329203:78329204:+_ENSMUSG00000022865_ENSMUST00000023572|mus_mus|FALSE|FALSE (ssRNA)
RNA: GGGAGUUCUACAGUCCGACGAUCUACCCGUCCUUUCAGAUCCGGAUAGUAGUUAUCAUAAAUUUUGUCUCCAGAAUACAAAAUGAUCACUUGAUCCACUAUCUGGUUAUCAGACGGGGAUAUCAGCCAUUCAAUGUCCAGUGGCAACAGAGGAUUGAGCAUCA
B6: 138068168_138068741_4728_CDS_ENSMUSG00000041642_ENSMUST00000075164|mouse|control|control (ssRNA)
RNA: GGGAGUUCUACAGUCCGACGAUCGAACAUCUUCACAUAGUGGUCCUUGGAGCCCGUCACCACGAGGUCAUGCUGGUUUGAAGUCUGGGUGACUGUUAGGCACAUCACUGGGCCAAUGUGGCCAGUCAGUUUGCCAAUGGGCUGCAACAGAGGAUUGAGCAUCA
B7: chr11:87793186:87793187:-_ENSMUSG00000020483_ENSMUST00000020775|mus_hu|motif|central (ssRNA)
RNA: GGGAGUUCUACAGUCCGACGAUCCACAGUCUGGGAGGGCAGGGGGAAACACAGAUUUGGACAUUCAUAAAAAAAUAAAACCGGAAAUCAAGCACUCAAUUUUGUGCCCACUGAAGGGUUUGAUAAAGGGAACUCAGUCACCACCAACAGAGGAUUGAGCAUCA
B8: 95522056_95522652_3691_CDS_ENSG00000164944_ENST00000437199|human|control|control (ssRNA)
RNA: GGGAGUUCUACAGUCCGACGAUCAAUUAGAUGCAAAAUAGCUAAUUUACAAGCUUUGUGUGAAGCCAGAGCAUCAAGAAGAGCAAGCAACCUGGUGGUUUGGCUAGUAUACUGUUUUUCUUUAUCUUCUGAAGUGCUUUGCAACAACAGAGGAUUGAGCAUCA
B9: chr5:132409753:132409754:+_ENSG00000170606_ENST00000304858|hu_mus|FALSE|FALSE (ssRNA)
RNA: GGGAGUUCUACAGUCCGACGAUCUUUAUUAAAUGCACAUACAGAAACUUGAUAGGCAGAAUGUCCCAUAUCUACAAAAACUACAUUUCUUGGUUUUUCUUCUAAGGCAGGAAGGUCUUGUUUAUAGAUUCCAUAAGCAAGAGCCAACAGAGGAUUGAGCAUCA
B10: chr19:3544227:3544228:-_ENSMUSG00000024908_ENSMUST00000113997|mus_mus|motif|central (ssRNA)
RNA: GGGAGUUCUACAGUCCGACGAUCAAAGAAAUGUUUUCUUCUCUGUGGCUCCUUGCCCAUUACAGGUUAUCCUGGUGACAGCGGUCUUCCAAAUUACAUUAGCAGAUUAGCAGAAGUAUGAAAGGAUAUUGUAUGAAACAGAAGCAACAGAGGAUUGAGCAUCA
B11: chrX:69798090:69798091:-_ENSMUSG00000031343_ENSMUST00000055966|mus_mus|mus_mus_mus_hu_False|18_108 (ssRNA)
RNA: GGGAGUUCUACAGUCCGACGAUCAAGUCCCCAGGUUCUUGUCGUCUUGAUUCCCCUUGACCAGUGGUUCCAGGGAGAAUAUUAAUCAGGAAAAGAAUCCCAAGGCUGGUCAUGUAAAAGUGCCACAUUUGUGUGAUUAUCAUCCAACAGAGGAUUGAGCAUCA
B12: 96141451_96141571_2366_3pUTR_ENSMUSG00000047694_ENSMUST00000054697|mouse|control|control (ssRNA)
RNA: GGGAGUUCUACAGUCCGACGAUCUGAAAAUCAGCCUGCCCUAGAUGUUCUGUUCCCUGAAAAGCCUUCACUCUUGUGCGUAAAUAUCUGAGAGGACAGGUAGAUGCACAUGUGCAAAAUGUACAUAUCUAAAGGGAAGCUAAUCAACAGAGGAUUGAGCAUCA
B13: chr1:163112212:163112213:-_ENSG00000143248_ENST00000313961|hu_hu|hu_hu_hu_mus_False|18_28 (ssRNA)
RNA: GGGAGUUCUACAGUCCGACGAUCUUUUAUUAUCAGUAAGAGUGAGUUACAUACUAGGCAAAGUAUUGGAUACAAUAAUCAGGAAACAAACACUAUUGGUCCAGAAUUUAAAAUAUAUGGGAUAAAUUGCUGGCACAGGACUUACAACAGAGGAUUGAGCAUCA
B14: chr18:65376317:65376318:+_ENSMUSG00000024589_ENSMUST00000163516|mus_mus|FALSE|FALSE (ssRNA)
RNA: GGGAGUUCUACAGUCCGACGAUCUGCUAUACCAACAGAAAACUAUCCCUUUCCUAGGAAACACUAGACAGGCUCAUGUCCUAACGCUACAGCUGCUUCUCUGGCACACUGAAAACACUCUGGGGUGGAGUGUGCAUACACAGACAACAGAGGAUUGAGCAUCA

Each binder was assayed against T1, UNK ZnF1-3 (human, UniProt Q9C0B0 31-174) (assay: nsRBNS (natural sequence RNA bind-n-seq); RBNS binding buffer (assumed for nsRBNS): 25 mM Tris pH 7.5, 150 mM KCl, 3 mM MgCl2, 0.01% Triton X-100, 500 ug/ml BSA, 20 U/ml SUPERase-In, 4 C; UNK is unkempt and MSI1 is Musashi-1; names of the RNAs are library labels; protein concentration not given here; high values mean tight binding).
T1 sequence: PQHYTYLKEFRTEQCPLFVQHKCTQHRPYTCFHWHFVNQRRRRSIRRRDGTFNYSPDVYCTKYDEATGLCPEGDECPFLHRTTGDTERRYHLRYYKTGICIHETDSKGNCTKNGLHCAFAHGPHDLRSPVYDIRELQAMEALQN

Point of comparison: B14, binding signal 0.875 enrichment R. Against it:
- B1 — lower, 0.714 enrichment R
- B2 — higher, 0.946 enrichment R
- B3 — higher, 1.64 enrichment R
- B4 — lower, 0.794 enrichment R
- B5 — lower, 0.771 enrichment R
- B6 — lower, 0.796 enrichment R
- B7 — higher, 2.92 enrichment R
- B8 — higher, 1.04 enrichment R
- B9 — lower, 0.635 enrichment R
- B10 — higher, 1.31 enrichment R
- B11 — higher, 0.894 enrichment R
- B12 — higher, 1.1 enrichment R
- B13 — higher, 1.65 enrichment R
